Results are given in words; binding and its absence hold for the method and conditions named. In cells and extracts the contact can be indirect. Some results given as binding are weak or reduced against the parent protein; the word gives no strength. For some assays here: Where a sequence is shown, tags or fusion partners need not be part of it.
T1: TTP (tristetraprolin), endogenous in RAW264.7 macrophage cells (mouse (endogenous in RAW264.7)) (UniProt P22893)
T1 sequence: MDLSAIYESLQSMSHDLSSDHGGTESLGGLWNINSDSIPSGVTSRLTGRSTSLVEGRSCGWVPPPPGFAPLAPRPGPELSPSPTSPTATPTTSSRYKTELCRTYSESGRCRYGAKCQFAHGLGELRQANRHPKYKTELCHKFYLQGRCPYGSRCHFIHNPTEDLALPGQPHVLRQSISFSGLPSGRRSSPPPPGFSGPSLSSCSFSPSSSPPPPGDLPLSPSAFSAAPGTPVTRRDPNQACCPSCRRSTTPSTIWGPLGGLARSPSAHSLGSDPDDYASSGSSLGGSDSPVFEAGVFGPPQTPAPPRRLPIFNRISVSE

Sequences of proteins named here, by UniProt entry; tags and fusion partners are left off.
UniProt P26651: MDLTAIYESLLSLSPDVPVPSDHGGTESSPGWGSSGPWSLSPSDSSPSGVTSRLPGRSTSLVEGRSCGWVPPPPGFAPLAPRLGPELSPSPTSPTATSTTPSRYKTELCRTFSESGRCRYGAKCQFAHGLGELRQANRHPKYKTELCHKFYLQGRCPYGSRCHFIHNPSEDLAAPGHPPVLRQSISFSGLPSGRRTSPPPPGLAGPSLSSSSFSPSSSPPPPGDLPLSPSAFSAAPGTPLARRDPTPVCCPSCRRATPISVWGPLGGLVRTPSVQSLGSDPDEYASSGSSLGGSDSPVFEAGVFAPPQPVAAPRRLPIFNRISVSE
UniProt Q15717: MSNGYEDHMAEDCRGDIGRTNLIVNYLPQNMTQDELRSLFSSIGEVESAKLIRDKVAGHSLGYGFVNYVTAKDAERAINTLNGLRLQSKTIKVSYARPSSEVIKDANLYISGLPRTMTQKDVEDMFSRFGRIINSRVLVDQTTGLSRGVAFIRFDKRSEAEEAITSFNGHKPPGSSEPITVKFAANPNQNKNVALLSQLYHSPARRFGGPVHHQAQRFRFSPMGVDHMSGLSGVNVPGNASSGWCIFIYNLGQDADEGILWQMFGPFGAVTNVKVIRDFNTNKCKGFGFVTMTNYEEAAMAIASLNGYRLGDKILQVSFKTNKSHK
UniProt P70372: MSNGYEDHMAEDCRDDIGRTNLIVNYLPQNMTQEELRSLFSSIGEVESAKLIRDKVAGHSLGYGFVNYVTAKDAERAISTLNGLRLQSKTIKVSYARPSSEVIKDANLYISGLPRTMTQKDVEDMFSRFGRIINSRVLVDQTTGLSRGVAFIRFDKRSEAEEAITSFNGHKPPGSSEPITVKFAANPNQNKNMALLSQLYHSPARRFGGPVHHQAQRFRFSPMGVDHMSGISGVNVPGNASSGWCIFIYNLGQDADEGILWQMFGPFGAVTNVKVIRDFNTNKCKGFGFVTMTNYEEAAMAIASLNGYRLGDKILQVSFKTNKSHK
UniProt P62258: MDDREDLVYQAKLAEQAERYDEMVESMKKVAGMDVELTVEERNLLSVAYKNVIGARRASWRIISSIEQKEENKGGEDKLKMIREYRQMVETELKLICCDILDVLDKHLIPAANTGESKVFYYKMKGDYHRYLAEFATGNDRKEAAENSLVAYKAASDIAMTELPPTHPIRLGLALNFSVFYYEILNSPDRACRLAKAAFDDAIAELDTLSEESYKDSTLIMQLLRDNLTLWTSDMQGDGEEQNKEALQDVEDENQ
UniProt P27708: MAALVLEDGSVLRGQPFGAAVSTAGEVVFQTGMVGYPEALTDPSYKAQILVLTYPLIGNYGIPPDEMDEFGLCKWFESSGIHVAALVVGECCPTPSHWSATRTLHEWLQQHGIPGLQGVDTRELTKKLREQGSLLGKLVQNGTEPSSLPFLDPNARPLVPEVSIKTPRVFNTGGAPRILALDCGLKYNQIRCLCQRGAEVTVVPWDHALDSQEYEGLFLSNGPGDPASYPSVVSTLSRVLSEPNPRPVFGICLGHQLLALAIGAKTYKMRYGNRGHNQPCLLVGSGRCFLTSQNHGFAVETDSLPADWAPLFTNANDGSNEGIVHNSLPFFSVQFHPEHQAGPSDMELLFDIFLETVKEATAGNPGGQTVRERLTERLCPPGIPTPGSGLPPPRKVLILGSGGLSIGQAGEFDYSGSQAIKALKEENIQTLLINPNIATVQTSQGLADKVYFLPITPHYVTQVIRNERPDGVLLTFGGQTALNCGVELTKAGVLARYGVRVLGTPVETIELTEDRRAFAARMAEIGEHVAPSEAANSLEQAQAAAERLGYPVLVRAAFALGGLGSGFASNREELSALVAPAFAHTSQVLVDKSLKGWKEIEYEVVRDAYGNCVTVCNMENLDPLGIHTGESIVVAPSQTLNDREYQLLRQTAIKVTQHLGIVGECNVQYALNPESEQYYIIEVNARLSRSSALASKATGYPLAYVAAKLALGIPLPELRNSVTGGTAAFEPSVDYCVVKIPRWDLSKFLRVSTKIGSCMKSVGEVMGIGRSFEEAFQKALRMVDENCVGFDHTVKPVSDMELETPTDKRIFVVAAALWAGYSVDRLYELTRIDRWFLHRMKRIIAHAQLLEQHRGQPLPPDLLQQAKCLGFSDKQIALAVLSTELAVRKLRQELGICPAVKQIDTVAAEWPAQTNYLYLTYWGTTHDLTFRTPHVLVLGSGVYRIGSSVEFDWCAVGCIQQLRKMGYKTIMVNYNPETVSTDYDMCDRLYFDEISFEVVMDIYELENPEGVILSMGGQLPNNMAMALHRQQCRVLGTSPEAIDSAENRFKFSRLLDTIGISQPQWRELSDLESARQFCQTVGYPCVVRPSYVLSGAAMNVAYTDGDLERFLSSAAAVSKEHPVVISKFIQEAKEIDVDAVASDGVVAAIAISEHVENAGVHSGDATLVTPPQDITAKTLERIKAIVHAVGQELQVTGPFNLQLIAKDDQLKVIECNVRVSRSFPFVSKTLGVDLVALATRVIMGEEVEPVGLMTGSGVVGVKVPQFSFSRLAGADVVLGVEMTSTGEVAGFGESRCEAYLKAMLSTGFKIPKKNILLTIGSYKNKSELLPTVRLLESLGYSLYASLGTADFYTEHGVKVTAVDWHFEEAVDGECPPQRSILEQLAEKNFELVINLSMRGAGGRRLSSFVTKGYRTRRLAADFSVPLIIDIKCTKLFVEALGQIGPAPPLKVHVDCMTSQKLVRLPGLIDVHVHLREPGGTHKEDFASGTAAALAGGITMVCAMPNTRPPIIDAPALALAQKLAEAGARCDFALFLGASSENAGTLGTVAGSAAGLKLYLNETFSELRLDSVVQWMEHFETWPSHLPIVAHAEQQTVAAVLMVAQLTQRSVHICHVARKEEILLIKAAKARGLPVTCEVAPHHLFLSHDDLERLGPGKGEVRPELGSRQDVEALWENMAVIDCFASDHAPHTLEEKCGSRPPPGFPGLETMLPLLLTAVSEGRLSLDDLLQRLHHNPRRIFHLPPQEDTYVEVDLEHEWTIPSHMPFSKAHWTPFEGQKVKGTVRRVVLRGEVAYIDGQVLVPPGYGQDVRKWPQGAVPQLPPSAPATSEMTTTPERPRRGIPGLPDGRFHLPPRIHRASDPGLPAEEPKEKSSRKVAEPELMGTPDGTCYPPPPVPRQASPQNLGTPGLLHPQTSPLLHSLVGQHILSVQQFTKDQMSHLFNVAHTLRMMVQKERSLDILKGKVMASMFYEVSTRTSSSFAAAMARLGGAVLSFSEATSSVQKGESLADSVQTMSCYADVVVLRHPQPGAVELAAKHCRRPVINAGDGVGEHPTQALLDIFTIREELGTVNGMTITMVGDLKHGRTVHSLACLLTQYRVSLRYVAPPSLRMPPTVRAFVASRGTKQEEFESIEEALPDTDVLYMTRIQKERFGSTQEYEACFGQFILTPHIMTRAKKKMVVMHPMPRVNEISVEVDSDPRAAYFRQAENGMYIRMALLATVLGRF

T2: Flag-tagged BRF1 (UniProt Q07352)
T2 sequence: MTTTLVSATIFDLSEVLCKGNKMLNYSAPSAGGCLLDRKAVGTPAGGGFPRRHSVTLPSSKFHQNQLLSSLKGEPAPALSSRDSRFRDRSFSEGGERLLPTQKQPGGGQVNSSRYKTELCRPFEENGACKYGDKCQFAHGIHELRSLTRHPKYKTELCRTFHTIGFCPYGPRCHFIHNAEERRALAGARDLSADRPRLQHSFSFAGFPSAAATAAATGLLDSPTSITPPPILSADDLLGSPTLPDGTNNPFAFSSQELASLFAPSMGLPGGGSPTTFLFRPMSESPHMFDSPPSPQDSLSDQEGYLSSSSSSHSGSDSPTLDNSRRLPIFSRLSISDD

T3: hnRNP F, endogenous in RAW264.7 macrophage cells (mouse (endogenous in RAW264.7)) (UniProt Q9Z2X1)
T3 sequence: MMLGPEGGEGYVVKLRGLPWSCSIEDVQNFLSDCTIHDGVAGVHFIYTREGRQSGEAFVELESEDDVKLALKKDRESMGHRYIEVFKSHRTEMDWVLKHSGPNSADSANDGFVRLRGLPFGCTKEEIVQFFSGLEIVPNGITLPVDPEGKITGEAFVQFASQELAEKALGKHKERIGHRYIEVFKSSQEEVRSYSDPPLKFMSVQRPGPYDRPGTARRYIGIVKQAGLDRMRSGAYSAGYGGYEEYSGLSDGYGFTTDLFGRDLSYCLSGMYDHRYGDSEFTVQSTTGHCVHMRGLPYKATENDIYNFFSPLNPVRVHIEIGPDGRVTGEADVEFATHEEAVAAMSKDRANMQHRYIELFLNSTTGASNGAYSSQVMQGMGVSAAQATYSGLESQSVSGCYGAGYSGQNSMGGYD


Tests used:
[1] = target: T1, TTP (tristetraprolin), endogenous in RAW264.7 macrophage cells (mouse (endogenous in RAW264.7)); test: co-IP; anti-TTP IP (Protein A sepharose) of endogenous proteins from RNase A-treated extracts of RAW264.7 cells after 2 and 6 h of 100 ng/ml LPS; 150 mM NaCl, Net-2 buffer, 4°C; Western blot
[2] = target: Flag-tagged TTP (tristetraprolin) (UniProt P26651); test: co-IP; anti-Flag IP from RNase-treated extracts of HEK 293T cells transiently co-expressing Flag-tagged bait and Myc-tagged proteins; Western blot
[3] = target: T2, Flag-tagged BRF1; test: as above
[4] = target: Flag-tagged HuR (UniProt Q15717); test: as above
[5] = target: T3, hnRNP F, endogenous in RAW264.7 macrophage cells (mouse (endogenous in RAW264.7)); test: condition: only cells without LPS (TTP expressed only at low levels); co-IP; anti-hnRNP F/H (1G11) IP of endogenous proteins from RNase A-treated extracts of RAW264.7 cells prior to LPS treatment (0 h), TTP expressed only at low levels; Western blot
[6] = target: T3, hnRNP F, endogenous in RAW264.7 macrophage cells (mouse (endogenous in RAW264.7)); test: co-IP; anti-hnRNP F/H (1G11) IP (Protein G sepharose) of endogenous proteins from RNase A-treated extracts of RAW264.7 cells after 2 and 6 h of 100 ng/ml LPS; 150 mM NaCl, Net-2 buffer, 4°C; Western blot
[7] = target: T1, TTP (tristetraprolin), endogenous in RAW264.7 macrophage cells (mouse (endogenous in RAW264.7)); test: condition: only cells without LPS (TTP expressed only at low levels); co-IP; anti-TTP IP of endogenous proteins from RNase A-treated extracts of RAW264.7 cells prior to LPS treatment (0 h), TTP expressed only at low levels; Western blot

Molecule | binding [1] | binding [2] | binding [3] | binding [4] | also measured
HuR, endogenous in RAW264.7 macrophage cells (from UniProt P70372 1-326) | no binding | – | – | – | –
Myc-tagged 14-3-3ε (from UniProt P62258 1-255) | – | binds | binds | no binding | –
Myc-tagged CAD (carbamoyl-phosphate synthetase 2, aspartate transcarbamylase, and dihydroorotase) (from UniProt P27708 1-2225) | – | binds | binds | no binding | –
TTP (tristetraprolin), endogenous in RAW264.7 macrophage cells (protein, UniProt P22893 1-319) MDLSAIYESLQSMSHDLSSDHGGTESLGGLWNINSDSIPSGVTSRLTGRSTSLVEGRSCGWVPPPPGFAPLAPRPGPELSPSPTSPTATPTTSSRYKTELCRTYSESGRCRYGAKCQFAHGLGELRQANRHPKYKTELCHKFYLQGRCPYGSRCHFIHNPTEDLALPGQPHVLRQSISFSGLPSGRRSSPPPPGFSGPSLSSCSFSPSSSPPPPGDLPLSPSAFSAAPGTPVTRRDPNQACCPSCRRSTTPSTIWGPLGGLARSPSAHSLGSDPDDYASSGSSLGGSDSPVFEAGVFGPPQTPAPPRRLPIFNRISVSE | – | – | – | – | binding [5]: no binding; binding [6]: binds
hnRNP F, endogenous in RAW264.7 macrophage cells (protein, UniProt Q9Z2X1 1-415) MMLGPEGGEGYVVKLRGLPWSCSIEDVQNFLSDCTIHDGVAGVHFIYTREGRQSGEAFVELESEDDVKLALKKDRESMGHRYIEVFKSHRTEMDWVLKHSGPNSADSANDGFVRLRGLPFGCTKEEIVQFFSGLEIVPNGITLPVDPEGKITGEAFVQFASQELAEKALGKHKERIGHRYIEVFKSSQEEVRSYSDPPLKFMSVQRPGPYDRPGTARRYIGIVKQAGLDRMRSGAYSAGYGGYEEYSGLSDGYGFTTDLFGRDLSYCLSGMYDHRYGDSEFTVQSTTGHCVHMRGLPYKATENDIYNFFSPLNPVRVHIEIGPDGRVTGEADVEFATHEEAVAAMSKDRANMQHRYIELFLNSTTGASNGAYSSQVMQGMGVSAAQATYSGLESQSVSGCYGAGYSGQNSMGGYD | binds | – | – | – | binding [7]: no binding

Reference: PMC4076271
